From ChEMBL document CHEMBL4888484, “Replenishing the malaria drug discovery pipeline: Screening and hit evaluation of the MMV Hit Generation Library 1 (HGL1) against asexual blood stage Plasmodium falciparum ,using a nano luciferase reporter read-out” (2022)
In all, about 150,000 compounds went through this assay and about 540 (0.36%) showed an effect of 50% or more. The list shows a part of the results.

Test system: Plasmodium falciparum
Experiment: Primary screen in NF54 nanoGlo assay, in single point, at 2uM, 72h; a lower Z score goes with more inhibition
Assay type: functional, Erythrocyte
Conditions: timepoint 72 hour

Compound | % Inhibition [%] | Z score
Cc1csc(Nc2ccc(NC(=O)Cn3cncn3)cc2)n1 | -8 | 1.68
CC(CNC(=O)C1CCCN(S(=O)(=O)c2cccs2)C1)c1ccccc1 (stereo unspecified) | 6 | -0.84
O=C(NC[C@H]1CCCC1(F)F)c1ccc2[nH]c(=O)[nH]c2c1 | -15 | 1.72
Cc1ncsc1CNC1CCN(C(=O)C(C)C)CC1C (stereo unspecified) | -13 | 1.17
Cc1nnsc1C(=O)N(Cc1nn(C)c2c1CCC2)C1CCCC1 | -8 | 1.59
C[C@@H](CCc1ccccc1)NC(=O)c1cc2n(n1)CCN(Cc1c(Cl)cccc1Cl)C2=O | -4 | 0.58
CN(C)[C@H]1[C@H](NC(=O)c2ccc(Oc3ccccc3)o2)[C@@H]2CCO[C@@H]21 | -17 | 1.68
COCC(=O)Nc1ccc(NC(=O)c2ccccc2-c2nccn2C)cc1Cl | -10 | 1.89
C[C@@H](c1cncs1)N(C)C(=O)c1cc2c(s1)CCCC2 | -5 | 0.71
CCN(Cc1ccccc1)C(=O)c1sc(-c2nnn(-c3ccc(C)c(C)c3)c2C)nc1C | -9 | 0.82
O=C(C1CCCC1)N1CCC[C@H](S(=O)(=O)N2CCCC2)C1 | 7 | -0.99
CN(Cc1ccon1)C(=O)[C@@]1(C)CCCN(C(=O)c2ccccc2)C1 | -11 | 1.85
C[C@H]1CCn2c(nc3cc(C(=O)NC4CCCCC4)ccc32)C1 | -10 | 1.38
COc1ccccc1C(=O)NCc1ccc2c(c1)CCN2C(=O)c1ccncc1 | -8 | 0.73
CCc1sc(C(C)NC(=O)[C@@H](O)c2ccccc2)cc1C (stereo partly specified) | -12 | 2.19
COc1ccc(NC(=O)Nc2cnn(Cc3cn4ccccc4n3)c2)cc1 | -18 | 1.59
Cc1nc(C)c(CN2CCN(C)[C@]3(CCC(=O)N(CC4CC4)CC3)C2)s1 | 2 | -0.16
O=C(Cc1ncccc1F)NC[C@@H]1CCCC[C@H]1O | -1 | 0.1
Cc1ccc(Cl)cc1NC(=O)[C@H]1CCCN(c2nccc3sccc23)C1 | -1 | 0.21
Cc1ccsc1C(=O)N1CCC2(CC1)CCC(O)(CN(C)C)CC2 | -13 | 2.41
CC[C@@H](CO)NS(=O)(=O)c1cc(C)ccc1C | 3 | -0.66

Compound | % Inhibition [%] | Z score
C=CCC[C@H](NCC#N)c1ccccc1 | -8 | 0.96
Cc1nn(-c2ccc(F)cc2)c2nc(N3CCCN(C(=O)c4ccc(N(C)C)cc4)CC3)sc12 | -10 | 1.13
Cc1cc(N2CCN(c3cc(N4CCCC4)ncn3)CC2)n[nH]1 | 3 | -0.34
O=C(N[C@@H]1C[C@H](Cn2cc(C3CC3)nn2)[C@@H](O)[C@H]1O)c1ccc2c(c1)OCO2 | 1 | -0.19
O=C(NCc1ccc(F)cc1F)[C@@H]1CCCn2c(-c3ccccc3)cnc21 | 3 | -0.54
CC[C@@H](C(=O)N1CCCN(S(=O)(=O)N2CCCC2)CC1)n1cccn1 | -29 | 2.57
Nc1ccc(F)cc1-c1nc(C2CC2)no1 | 13 | -1.69
CO[C@H]1COCC[C@@H]1NC(=O)c1ccc(C)s1 | 0 | -0.01
CC1(C)COCCC[C@H]2CN(C(=O)Nc3cccc(Cl)c3)CC[C@H]2CC(=O)N(CC2CCC(F)(F)CC2)C[C@@H]1O | -3 | 0.49
Cc1cc(C)n(CCNS(=O)(=O)c2c(C)n[nH]c2C)n1 | 0 | 0.05
CN=C(NC1CCCCC1)N1CCCC1 | -13 | 1.28
CC(C)N1CCN2C(=O)c3ccccc3OCC[C@@H]3CC[C@H](O)[C@@H](CNC(=O)[C@@H]2C1)O3 | 3 | -0.4
Cc1ccc(CNC(=O)c2c(C)n[nH]c2C(C)C)c(C)c1 | -16 | 1.65
COc1nccc(Oc2ccccc2CN(C)C)c1C#N | 6 | -0.82
C[C@@H](c1cc2ccccc2[nH]1)N(C)CCC(=O)Nc1nccs1 | -21 | 2.67
COc1cccc(OCCCc2ccc(S(N)(=O)=O)cc2F)c1 | 12 | -1.64
CCOC(=O)c1cn(CCS(=O)(=O)NC)cc(Oc2ccccc2)c1=O | -17 | 2.2
c1ccc(-n2nccc2[C@H]2c3nc[nH]c3CCN2Cc2ccccn2)cc1 | -10 | 1.44
C=C(C)CN(CC)S(=O)(=O)N1CCCCC1 | -12 | 1.44
Cc1ccc(Cl)c(S(=O)(=O)NCCC(N)=O)c1 | 11 | -1.04
CCC(C)N1C(=O)C(CC(C)C)NC12CCN(S(=O)(=O)c1ccc(C)cc1)CC2 (stereo unspecified) | -7 | 1.31

Compound | % Inhibition [%] | Z score
Fc1cc(Cl)cnc1N1CCC2(CCOCC2)C1 | 34 | -1.13
CN(C)c1ccc(N2CCC(Nc3ccc(F)cc3F)CC2)cc1 | -12 | 1.98
Cc1ncoc1C(=O)N[C@H](c1cccnc1)C(F)(F)F | -4 | 0.55
N[C@H]1CN(C(=O)C2CCCCCC2)C[C@@H]1C1CC1 | 14 | -2.58
CN(C)c1cccc(C(=O)NC2CCS(=O)(=O)CC2)c1 | -10 | 1.36
CO[C@H]1CCOC[C@@H]1NC(=O)c1cc(-c2c(C)nn(C)c2C)nn1C | -4 | 0.79
O=C(O)C1C2C=CC(C2)C1C(=O)N1CCN(C(c2ccccc2)c2ccccc2)CC1 (stereo unspecified) | -7 | 1.19
C#CC[C@H](OC(=O)c1cccn1C)C1CC1 | 36 | -5.54
CC(C)(O)[C@H]1CCN(Cc2ccc(Cl)o2)C1 | -10 | 1.38
Cc1noc(C)c1CCC(=O)Nc1nc(CC(C)C)n[nH]1 | -13 | 1.57
CC[C@@H](C(=O)Nc1cccc(Cl)c1C)n1c(=O)c(-c2ccccc2NC(C)=O)nc2ccccc21 | -17 | 3.19
COc1cc(NCC2(CO)CCC2)nc(N)n1 | 0 | -0.01
CC(C)COC[C@H](NC(=O)CC1(C(=O)O)Cc2ccccc2C1)c1ccco1 | 4 | -0.49
CC(C)C[C@@]1(C)CC(=O)N(Cc2ncc(C(C)C)o2)C1=O | -1 | 0.22
O=C(NCCc1cnn(-c2ccccc2)c1)[C@H]1C[C@H](F)CN1 | -2 | 0.19
Cc1cccc(Nc2nnc(CC(=O)Nc3ccc(OC(F)(F)F)cc3)s2)c1 | -4 | 0.56
CC(C)CCc1nnc(NCc2ccco2)o1 | -14 | 1.63
CCn1ccc2cc(S(=O)(=O)N3CCC[C@H](C(=O)NCCCN(C)Cc4ccccc4)C3)ccc21 | -20 | 3.13
Cc1ccc(-c2noc(CCCC(=O)N3CCCC[C@H]3c3noc(COCC4CC4)n3)n2)cc1 | -3 | 0.44
CCN1CCNC(=O)[C@@H]1CC(=O)N(Cc1ccco1)C(C)(C)CO | 7 | -0.99
COCC1CN(C(=O)CN2Cc3c(cnn3-c3ccccc3)C2=O)C1 | 16 | -2.03

Compound | % Inhibition [%] | Z score
O[C@H]1CN(c2nc(-c3ccccc3)cs2)CC[C@@H]1N1CCOCC1 | -11 | 2.19
CC[C@@H](C(=O)N1CC(N2CCc3sccc3C2)C1)c1ccccc1 | -8 | 1.47
CCn1nc(C)c(CNc2nnc([C@@H]3Cc4ccccc4O3)o2)c1C | -12 | 2.25
Cc1nnc([C@H](C)OC(=O)c2cccc(-n3ccnn3)c2)o1 | -4 | 0.34
CN(Cc1cc[nH]n1)C(=O)c1ccc(CN2CCc3ccccc3C2)cc1 | -20 | 2.16
Cc1nc2ccc3c(c2s1)CCCC3 | -1 | 0.27
C[C@H](C(=O)Nc1nc2c(ccc3ccccc32)s1)C1CCOCC1 | 36 | -4.6
CC[C@H](C)C(=O)NCCC(=O)Nc1cc(Br)ccc1C | -9 | 1.4
CCC[C@H]1CN(c2nc3cc(C(=O)OC)ccc3n2C)C[C@@H]1NS(C)(=O)=O | 16 | -2.05
NC1(c2noc([C@@H]3CCCO3)n2)CCCCCC1 | 34 | -1.29
O=C(Oc1ccc(N(C(=O)c2ccccc2)S(=O)(=O)c2ccccc2)c2ccccc12)c1ccccc1 | -3 | 0.35
CCCN1CCN(CCCNC(=O)[C@H]2CCCN(S(=O)(=O)c3ccc4c(ccn4C)c3)C2)CC1 | -11 | 2.07
O=S(=O)(Nc1nc2ccccc2nc1Nc1ccc2cn[nH]c2c1)c1ccc2ccccc2c1 | -14 | 1.85
CCc1cnc(C(C)NC2CCCc3occc32)s1 (stereo unspecified) | 3 | -0.54
O=C(CC1(O)CCCCC1)NCCC1=CCOCC1 | -10 | 1.14
O=C1CN(S(=O)(=O)c2cccc3nsnc23)CCCN1 | -8 | 1.57
CCCc1nc(C)cc(N2CCC[C@]3(CC2)CN(C)C(=O)O3)n1 | -15 | 2.07
CCOc1cc(C(=O)N2CCC3CCCCC32)ccn1 (stereo unspecified) | -12 | 1.57
COc1ccc(-n2nc(C)c3c(O)c4c(nc32)CCCC4)cc1 | -3 | 0.33
Cc1cccc(S(=O)(=O)N2CC(Cn3ccnn3)C2)c1 | 2 | -0.44
